Laboratory results as given in PubChem BioAssay AID504332 (National Center for Advancing Translational Sciences (NCATS), 2011).
The whole screen tested about 350,000 compounds, of which about 31,000 (8.9%) were called active. The shares of active, inactive and inconclusive entries below differ from those in the screen. Calls follow the shape of the dose curve; as a rule, active = well fitted inhibition curve with a large enough effect; inconclusive = small, poorly fitted or top-dose-only effect; inactive = no such curve, though single readings can be large or run the other way. Potencies of inconclusive entries are doubtful fits and often do not repeat.

biological target: Histone-lysine N-methyltransferase EHMT2 (Homo sapiens) (UniProt Q96KQ7); assay: qHTS Assay for Inhibitors of Histone Lysine Methyltransferase G9a; conditions: G9a H3K9 monomethylation, AlphaScreen, 2 h; activity, negative = inhibition: at 59 µM (top of the series) unless noted; also: nearly all actives have a fitted effect of over 75% in size
How it was run: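 Compounds were preincubated with 20 nM G9a for 15 min, after which biotinylated H3K9 peptide (500 nM) and SAM (20 uM) started a 2 h room-temperature reaction. Monomethylated product was quantified by antibody-based AlphaScreen chemiluminescence.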
% is scaled to controls: 0 for no effect and ±100 for the full control effect; potency is read from the fitted curve at half-maximal effect; tags tell the direction and shape of the fitted curve.

UniProt Q96KQ7, sequence (Q96KQ7 whole entry, looked up): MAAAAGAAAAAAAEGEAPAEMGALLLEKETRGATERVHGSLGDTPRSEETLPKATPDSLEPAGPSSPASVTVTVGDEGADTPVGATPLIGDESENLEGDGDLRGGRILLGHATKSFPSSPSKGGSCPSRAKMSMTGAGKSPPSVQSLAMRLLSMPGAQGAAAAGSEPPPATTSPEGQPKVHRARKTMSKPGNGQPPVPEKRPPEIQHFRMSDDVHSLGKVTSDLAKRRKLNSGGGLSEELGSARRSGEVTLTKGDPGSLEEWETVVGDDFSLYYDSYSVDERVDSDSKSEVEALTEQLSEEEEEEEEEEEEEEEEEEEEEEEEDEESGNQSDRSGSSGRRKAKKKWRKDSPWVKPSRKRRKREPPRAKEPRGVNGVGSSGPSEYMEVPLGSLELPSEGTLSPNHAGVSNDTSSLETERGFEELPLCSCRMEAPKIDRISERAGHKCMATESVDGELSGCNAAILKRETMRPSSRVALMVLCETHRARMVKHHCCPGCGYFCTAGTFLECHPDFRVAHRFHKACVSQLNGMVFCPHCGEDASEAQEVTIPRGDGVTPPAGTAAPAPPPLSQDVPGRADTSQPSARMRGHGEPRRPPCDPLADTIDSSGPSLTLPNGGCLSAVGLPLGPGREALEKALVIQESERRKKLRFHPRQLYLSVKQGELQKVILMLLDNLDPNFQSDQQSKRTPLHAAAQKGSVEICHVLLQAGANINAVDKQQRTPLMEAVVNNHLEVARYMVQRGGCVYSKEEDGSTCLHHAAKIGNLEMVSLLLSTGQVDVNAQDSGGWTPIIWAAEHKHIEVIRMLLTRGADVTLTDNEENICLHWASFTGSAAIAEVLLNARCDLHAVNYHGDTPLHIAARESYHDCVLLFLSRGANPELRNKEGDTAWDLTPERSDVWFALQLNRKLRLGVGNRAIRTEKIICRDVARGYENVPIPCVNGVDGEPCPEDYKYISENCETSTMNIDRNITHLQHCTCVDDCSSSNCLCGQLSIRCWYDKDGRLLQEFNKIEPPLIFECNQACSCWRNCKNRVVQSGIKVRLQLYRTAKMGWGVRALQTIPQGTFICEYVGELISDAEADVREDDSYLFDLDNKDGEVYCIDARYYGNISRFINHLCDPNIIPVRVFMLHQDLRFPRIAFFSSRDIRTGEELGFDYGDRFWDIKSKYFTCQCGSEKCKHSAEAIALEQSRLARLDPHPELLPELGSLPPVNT

SMILES | Potency | activity, negative = inhibition
CC(=O)NCCN1C(=O)S/C(=C\c2cccs2)C1=O | inconclusive: 89.1 µM [inhibitor, single point] | –
CCOC(=O)c1snc(C(=O)NC2CCCCC2)c1N | inconclusive: 1.12 µM [inhibitor, full curve, poor fit] | –
O=C(C1=C(O)C(=O)N(CCN2CCOCC2)C1c1ccc(F)cc1)c1cccs1 (stereo not given) | active: 70.8 µM | –
Cc1ccc(OCC(=O)NNC(=S)NC(=O)C2CC2)c(C)c1 | active: 10 µM | –
CC1=C(C#N)C(=O)NC(=O)/C1=C\c1ccc(-c2cc(C)c(C)cc2[N+](=O)[O-])o1 | active: 10 µM | –
Cc1ccc(S(=O)(=O)N2CCN(Cc3ccccc3)CC2)s1 | inconclusive: 5.62 µM [inhibitor, single point] | –
Cc1ccc(O)c(NC(=O)c2cc(-c3ccc(F)cc3)no2)c1 | active: 8.91 µM | –
O=C1c2c(O)cccc2C(C2OC(CO)[C@@H](O)[C@H](O)[C@H]2O)c2cc(CO)cc(O)c21 (stereo not given in full) | – | inconclusive: -58.3% [inhibitor] [at 2.33 µM]
Cc1ccc(C)c(NC(=O)Cc2nc(CCl)cs2)c1 | inconclusive: 10 µM [inhibitor, partial curve, poor fit] | –
O=S1(=O)N=C(Nc2nncs2)c2ccccc21 | active: 2 µM | –
O=c1cc(CO)oc(CN2CCN(CCO)CC2)c1O | inconclusive: 20 µM [inhibitor, partial curve, poor fit] | –
COc1ccc(OC)c(S(=O)(=O)Nc2ccc(O)c3ccccc23)c1 | active: 5.62 µM | –
CCc1c(C)sc(NC(=S)N2CCN(CC)CC2)c1C(=O)OC | inconclusive: 44.7 µM [inhibitor, partial curve, poor fit] | –
COc1cc(N=Cc2c(O)[nH]c3ccccc23)cc(OC)c1OC | – | inconclusive: -73.7% [inhibitor]
c1ccc(-c2nnc3n2NC(c2ccc4c(c2)OCO4)S3)cc1 (stereo not given) | inconclusive: 0.316 µM [inhibitor, full curve, poor fit] | –
Cc1ccc(CNC(C)(C)CO)cc1 | inconclusive: 89.1 µM [inhibitor, single point] | –
O=C(OCCN1CCCCC1)c1ccccc1Cl | inconclusive: 79.4 µM [inhibitor, partial curve, poor fit] | –
O=C(O)CCCn1c(=S)[nH]c2c(sc3ccc([N+](=O)[O-])cc32)c1=O | active: 8.91 µM | –
CCc1nnc(NC(=O)CN2CCN(C3CCCCC3)CC2)s1 | active: 10 µM | –
CC(C)CN(C(=O)COC(=O)CNC(=O)c1ccccc1)c1c(N)n(Cc2ccccc2)c(=O)[nH]c1=O | inconclusive: 44.7 µM [inhibitor, partial curve] | –
Cc1cccc(/C=C/C(=O)c2ccc(NC3=NCCCS3)cc2)c1 | inconclusive: 12.6 µM [inhibitor, single point] | –
O=C(NC1CCCC1)C(c1ccco1)N(C(=O)c1ccco1)c1ccc(F)cc1 (stereo not given) | inactive | –
CC(=O)c1ccc(NC(=O)c2ccc([N+](=O)[O-])o2)cc1 | inconclusive: 14.1 µM [inhibitor, partial curve, poor fit] | –
CC(Oc1cccc(Cl)c1)C(=O)Nc1nc(-c2ccccn2)cs1 (stereo not given) | active: 31.6 µM | –

SMILES | Potency | activity, negative = inhibition
Cc1ccc(NC2=C(Cl)C(=O)OC2OC(=O)c2ccc(C)cc2)cc1 (stereo not given) | inactive | –
CC(=O)c1ccc(NC(=O)C2CCCN2S(=O)(=O)c2cccs2)cc1 (stereo not given) | inactive | –
COc1ccc(CCN2C(=O)c3[nH]nc(-c4ccccc4O)c3C2c2cccc(O)c2)cc1OC (stereo not given) | inconclusive: 89.1 µM [inhibitor, single point] | –
Nc1nc(CSC(=S)N2CCN(c3ccccc3)CC2)nc(Nc2ccc(F)cc2)n1 | inconclusive: 12.6 µM [inhibitor, partial curve, poor fit] | –
COc1ccc(C(=O)NC(=S)Nc2ccc(NC(=O)c3ccco3)cc2)cc1[N+](=O)[O-] | inconclusive: 39.8 µM [inhibitor, single point] | –
COc1ccccc1NC(=O)c1cc2ccc(O)cc2o/c1=N\O | inconclusive: 39.8 µM [inhibitor, partial curve] | –
COc1cccc2cc(C(=O)N3CCN(c4ncccn4)CC3)c(=O)oc12 | inconclusive: 39.8 µM [inhibitor, single point] | –
O=Cc1ccc(-c2cc(Cl)ccc2Cl)[nH]1 | inconclusive: 79.4 µM [inhibitor, single point] | –
COc1cc(C(=O)OC2CCCCC2=O)cc(OC)c1C (stereo not given) | inconclusive: 3.98 µM [inhibitor, partial curve, poor fit] | –
CCOc1ccc(CCNC(=O)c2cnc3c(-c4ccc(F)cc4)c(C)nn3c2C)cc1 | inactive | –
N=C1Sc2ccccc2C2=NCCCN12 | active: 0.112 µM | –
COC(=O)COc1cccc2c(=O)n(CC(=O)N3CCC(C)CC3)ccc12 | inactive | –
O=C(NCCCN1CCN(c2ccccc2)CC1)c1sc2ncccc2c1-n1cccc1 | inactive | –
CS(=O)(=O)c1ccc2c(c1)sc1nc(=O)c(/C=C3/C=CC(=O)C(O)=C3)c(N)n12 | active: 5.01 µM | –
Cc1cc(C)c2c(=O)[nH]c(SCC(=O)N(C)C)nc2n1 | inactive | –
CC(=O)Nc1ccc(NC(=O)C(C)OC(=O)CSCc2cccc(Cl)c2)cc1 (stereo not given) | inconclusive: 50.1 µM [inhibitor, partial curve, poor fit] | –
Cc1nnc(SCC(=O)N(C)C2CCS(=O)(=O)C2)n1Cc1ccccc1 (stereo not given) | inconclusive: 50.1 µM [inhibitor, partial curve, poor fit] | –
COc1cc(S(=O)(=O)NCCc2c(C)[nH]c3ccc(C)cc23)ccc1Br | inconclusive: 31.6 µM [inhibitor, single point] | –
N#C/C(=C\c1ccccc1)c1n[nH]c(Cn2cncn2)n1 | inconclusive: 25.1 µM [inhibitor, full curve, poor fit] | –
Cc1[nH]c2ccc(OC(=O)N3CCOCC3)cc2c1C(=O)OC(C)C | – | inactive: 21.8% [at 12.7 µM]
CC(C)OCc1c(C(=O)OC/C(O)=C(\C#N)c2nc3ccccc3[nH]2)oc2ccccc12 | inconclusive: 39.8 µM [inhibitor, partial curve] | –
O=[N+]([O-])c1ccccc1CNc1ccc(F)c(Cl)c1 | inconclusive: 28.2 µM [inhibitor, single point] | –
Cc1ccc(/C=N/NC(=O)c2cccc(S(=O)(=O)Nc3cccc(Cl)c3)c2)o1 | inactive | –
CSc1ccc(S(=O)(=O)NCC(=O)OCC(=O)NC2(C#N)CCCCC2)cc1[N+](=O)[O-] | inconclusive: 50.1 µM [inhibitor, partial curve, poor fit] | –

SMILES | Potency | activity, negative = inhibition
CC(Nc1ccc(F)cc1)=[N+](C)CCNS(=O)(=O)c1ccc(Cl)cc1 | active: 22.4 µM | –
Cc1ccc(C2=NN(C(=O)CSc3nc4ncc(Cl)cc4[nH]3)C(c3ccco3)C2)cc1 (stereo not given) | active: 22.4 µM | –
Cc1onc(-c2ccccc2)c1-c1n[nH]c(=S)n1-c1ccc(C(=O)O)cc1 | inconclusive: 1.58 µM [inhibitor, single point] | –
N/N=C(/Cc1nc2ccccc2[nH]1)c1ccc([N+](=O)[O-])cc1 | inconclusive: 79.4 µM [inhibitor, single point] | –
CCCC(NS(=O)(=O)c1ccc(OC)cc1)C(=O)O (stereo not given) | inconclusive: 89.1 µM [inhibitor, single point] | –
COc1cc(SC#N)ccc1N=Cc1c(C)[nH]n(-c2ccc(C)c(C)c2)c1=O | active: 10 µM | –
COc1cc(NC(=O)C2CCN(S(=O)(=O)c3ccc4[nH]c(=O)oc4c3)CC2)cc(OC)c1 | inactive | –
O=C(O)c1ccccc1-c1nc2ccccc2[nH]1 | active: 44.7 µM | –
O=C1c2ccccc2C(Nc2ccc3nc(-c4cccnc4)[nH]c3c2)N1Cc1ccco1 (stereo not given) | inconclusive: 79.4 µM [inhibitor, single point] | –
O=C(NNC(=O)C1CC=CCC1C(=O)O)c1ccc(Cl)cc1 (stereo not given) | inactive | –
Cc1ccc(Cn2c(CN3CCN(C(=O)c4ccco4)CC3)nc3c2c(=O)n(C)c(=O)n3C)cc1 | active: 50.1 µM | –
N#Cc1nc(-c2cccc(Cl)c2)oc1NCc1cccnc1 | inconclusive: 28.2 µM [inhibitor, single point] | –
COc1cc2c(cc1OC)C(c1cc3ccccc3oc1=O)=NC(C)(C)C2 | inactive | –
CC(=O)Nc1ccc(S(=O)(=O)NC(C)(C#N)C2CC2)cc1 (stereo not given) | inconclusive: 79.4 µM [inhibitor, single point] | –
O=C(CCn1c(=S)[nH]c2ccccc2c1=O)NCC1CCCO1 (stereo not given) | – | inconclusive: -115% [inhibitor]
O=S(=O)(Nc1ncccn1)c1ccc(NC(=S)NCc2ccco2)cc1 | inconclusive: 56.2 µM [inhibitor, single point] | –
CCOC(=O)N1CCN(Cc2nc3c(c(=O)n(C)c(=O)n3C)n2Cc2ccccc2)CC1 | inconclusive: 10 µM [inhibitor, partial curve] | –
CCOc1ccc(NC(=O)c2cc(SC)ccc2Cl)cc1 | inactive | –
CC(=O)C1=C(C)NC(SCC(N)=O)=C(C#N)C1C (stereo not given) | inconclusive: 1.78 µM [inhibitor, partial curve, poor fit] | –
CCN(CC)S(=O)(=O)c1ccc(N=Nc2c(C)[nH]n(C(N)=S)c2=O)cc1 | inconclusive: 20 µM [inhibitor, single point] | –
CN1CCc2nc3sc(C(=O)c4ccc(F)cc4)c(N)c3cc2C1 | inconclusive: 10 µM [inhibitor, partial curve] | –
CCc1cc(C(=O)NNC(=O)CCN2CCN(c3ccccc3)CC2)sc1C | active: 39.8 µM | –
